Results published in PubChem BioAssay AID1508624 (National Center for Advancing Translational Sciences (NCATS), 2021).
The campaign covered roughly 48,000 compounds. About 120 (0.25%) were called active. Not shown: some 4% with an inconclusive outcome. The call rests on the fitted dose curve; in most records, active means well fitted activation curve with a large enough effect; inconclusive means small, poorly fitted or top-dose-only effect, or another doubt; inactive means no such curve, though single readings can be large or run the other way. The list shows a part of the results.

Experiment: Primary qHTS for Identification of Small Molecule Activators of Huntingtin-Antisense Promoter Activity; further: nearly all actives have a fitted effect of over 55% in size
Conditions: HEK293 HTT-AS promoter firefly luciferase reporter, 24 h; series mostly up to 57.5 µM; activity change, positive = activation: at the top concentration
In short: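 HEK293 cells carrying firefly luciferase reporters were seeded at 2,500 per well in Opti-MEM and cultured for 24 h. They were then treated with compounds at up to 57.5 uM final for 24 h at 37 degrees C before Dual-Glo luminescence readout.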
Potency means the concentration at half of the fitted maximal effect.

SMILES | activity change, positive = activation | Potency
CC1CCN(S(=O)(=O)c2ccc3c(c2)CCN3C(=O)Nc2ccccc2Br)CC1 | inactive: -0.945% | –
COc1ccc2c(c1)cc(CNc1ccc(OC)c(OC)c1)c(=O)n2CC(=O)Nc1ccccc1C | inactive: -10.9% | –
CCc1ccc(C(=O)c2cn(CC(=O)Nc3ccc4c(c3)OCCO4)c3ccc(F)cc3c2=O)cc1 | inactive: -28% | –
Cc1ccc(NCc2cccn2-c2nnc(N3CCC(C(=O)NCCc4ccc(Cl)cc4)CC3)s2)cc1 | inactive: -31.9% | –
COc1ccc(-n2c(C)nc3c(cnn3-c3ccc(F)cc3)c2=O)cc1 | inactive: -30.5% | –
CCCCN(CC)CCCNC(=O)c1c(C)oc2ncnc(N3CCOCC3)c12 | inactive: -10.2% | –
CCc1nn2c(=O)cc(COC(=O)c3cccc(NC(=O)CCc4ccccc4)c3)nc2s1 | inactive: 15.5% | –
CCn1cc(/C=C(\NC(=O)c2ccc(OC)cc2)C(=O)NCCCn2ccnc2)c2ccccc21 | inactive: -15.7% | –
COc1ccccc1CNC(=O)C1CCN(c2nc3ccc(Cl)cc3[nH]2)CC1 | inactive: -17% | –
CCCCc1ccc(-n2nc3cc(C)c(NC(=O)c4ccc(C#N)cc4F)cc3n2)cc1 | inactive: 15.3% | –
COc1cc2c(=O)n(CCC(=O)NCC3CCCO3)c(=O)n(CC(=O)Nc3ccccc3C)c2cc1OC (stereo unspecified) | inactive: 7.12% | –
CCc1nn(CC(=O)NCCc2ccc(OC)cc2OC)c(=O)c2cc3occc3n12 | inactive: -16.8% | –
Cc1c(C(=O)NCc2ccc(Cl)cc2)oc2ccc3c(c12)C(=O)CC(C)(C)O3 | inactive: 25.2% | –
CCCCOc1ccc(CNC(=O)c2cccc(NC(=O)N3CCSc4ncccc43)c2)cc1 | inactive: -41.3% | –
Cc1ccc(CNC(=O)CSc2ncc3c(n2)-c2cc(Cl)ccc2N(C)S3(=O)=O)cc1 | inactive: -2.85% | –
COc1nc(C)nc(Cl)c1NC1=NCCN1 | inactive | –
COc1ccc(-n2ncc3c(NCCCOC(C)C)ncnc32)cc1 | inactive: 11.5% | –
CCCCNC(=O)C1CCCN(S(=O)(=O)CCC)C1 (stereo unspecified) | inactive: -10.9% | –
CCOc1ccccc1C1CC(=O)Nc2c1c(=O)n(C)c1ncnn21 (stereo unspecified) | inactive: -9.56% | –
O=C(CCc1nc(CN2CCN(S(=O)(=O)c3ccc(Br)cc3)CC2)no1)N1CCCCC1 | inactive: -18.3% | –
COc1cc2cc(CNc3ccccc3)c(=O)n(CC(=O)Nc3cccc(Cl)c3C)c2cc1OC | inactive: -4.19% | –
CO/N=C(/C(=O)N[C@@H]1C(=O)N2C(C(=O)OCOC(=O)C(C)(C)C)=C(C)CS[C@H]12)c1csc(N)n1 | inactive: -8.07% | –
Cc1ccc(NC(=O)c2ccc(CN3CCN(C)CC3)cc2)cc1Nc1nc(-c2cccnc2)cs1 | inactive: 20.8% | –

SMILES | activity change, positive = activation | Potency
COc1cc(NC(=O)Cn2c(=O)n(CC3CCC(C(=O)NCCc4ccccc4)CC3)c(=O)c3ccccc32)cc(OC)c1 (stereo unspecified) | inactive: -12.2% | –
COc1cccc(Cn2cc(C(=O)c3ccccc3)c(=O)c3cc4c(cc32)OCO4)c1 | inactive: -31.2% | –
CCOc1cccc2sc(N(Cc3cccnc3)C(=O)c3ccc(C#N)cc3)nc12 | inactive: -16.8% | –
COc1ccc(NC(=O)CC2NCCNC2=O)c(OC)c1 (stereo unspecified) | inactive: -11.7% | –
Cc1c(CC(=O)NCc2ccc(F)cc2)c(=O)oc2cc(O)c(Cl)cc12 | inactive: -19.2% | –
CCOC(=O)c1c(NC(=O)C2c3ccccc3Oc3ccccc32)sc(C)c1C | inactive: -31.7% | –
O=C(NCc1ccccc1Cl)c1ccc2oc(=O)n(Cc3ccccc3)c2c1 | inactive: -29.8% | –
Cc1cc(C)n(-c2nc3ccccc3nc2N2CCN(c3cccc(C(F)(F)F)c3)CC2)n1 | inactive: -2.45% | –
Cc1cccc(-n2nc(C)c(C(=O)Nc3cc(C)ccc3C)c2-n2cccc2)c1 | inactive: -28.5% | –
COC(=O)c1cc(-c2ccc(C)cc2)c2c(=O)n(C)c(=O)n(C)c2n1 | inactive: -0.395% | –
Cc1nc(-c2ccc(F)cc2)sc1CCNC(=O)C(=O)Nc1ccc2c(c1)OCCO2 | inactive: -19.3% | –
OCCN(CCO)c1ncnc2c1cnn2-c1ccc(F)cc1 | – | active: 7.94 µM
COc1ccccc1C(=O)Oc1ccc(C(c2c(C)[nH][nH]c2=O)c2c(C)[nH][nH]c2=O)cc1 | inactive: 13.6% [at 11.5 µM, percent change from vehicle, -100% = no light] | –
COc1cccc(CNC(=O)c2cc(S(=O)(=O)N3CCCCC3)c[nH]2)c1 | inactive: -9.29% | –
COc1ccc(CC(=O)Nc2ccc(-c3nc4ccccc4s3)c(C)c2)cc1OC | inactive: 3.17% | –
COc1ccc2oc(=O)c(C(=O)N3CCN(c4ccc(C)cc4)CC3)cc2c1 | inactive: -6.92% | –
Cc1csc2nc(COC(=O)c3ccccc3NC(=O)c3ccc(C(C)(C)C)cc3)cc(=O)n12 | inactive: -20.7% | –
COc1ccc(-c2cc(C(F)(F)F)nc(NCCc3ccccc3)n2)cc1OC | inactive: -17% | –
O=C(CCCn1c(=O)c2cccn2c2ccccc21)NCCc1ccc(Cl)cc1 | inactive: -19.5% | –
CSc1nn(Cc2ccc(C)cc2)c(N)c1S(=O)(=O)c1ccccc1 | inactive: -43.6% | –
Cc1ccc(S(=O)(=O)NC(=O)NN2CC3CCCC3C2)cc1 (stereo unspecified) | inactive | –
COc1ccc(OC)c(NC(=O)Cn2c(=O)cc(-c3ccccc3)c3c(C)nn(C)c32)c1 | inactive: -36.5% | –
CCOC(=O)CNC(=O)N1CCN(c2nnc(C)c3c(C)n(-c4ccc(Cl)cc4)nc23)CC1 | inactive: -2.67% | –

SMILES | activity change, positive = activation | Potency
Cc1cccc(N2CCN(C(=O)CS(=O)(=O)Cc3nc(-c4ccccc4C)oc3C)CC2C)c1 (stereo unspecified) | inactive: -32.8% | –
CCc1ccc(S(=O)(=O)c2nnn3c2nc(Nc2ccc(NC(C)=O)cc2)c2sccc23)cc1 | inactive: -10.2% | –
CCOc1ccc(N(Cc2ccccc2)C(=O)c2nc(S(C)(=O)=O)ncc2Cl)cc1 | inactive: -94.5% | –
O=S(=O)(NCc1nc2cccnc2n1Cc1ccccc1Cl)c1ccc(F)c(Cl)c1 | inactive: -27.1% | –
CC(=O)c1c(C)oc2c1cc(NS(=O)(=O)c1ccc(Cl)c(C)c1)c1ccccc12 | inactive: 15.2% [at 11.5 µM, percent change from vehicle, -100% = no light] | –
Cc1cccc(OCC(=O)Nc2nnc(S(=O)(=O)N3CCc4ccccc43)s2)c1 | inactive: -15.8% | –
O=C(Nc1ccc(Cl)cc1)C(NS(=O)(=O)c1cccs1)c1ccccc1 (stereo unspecified) | inactive: -28.9% | –
Cc1nc(-c2ccc(C)c(N3CCN(C(=O)Nc4cccc(Cl)c4C)CC3)c2)no1 | inactive: -35.8% | –
CCOC(=O)C1CCCN(Cc2cn3c(-c4cccc(Br)c4)nnc3s2)C1 (stereo unspecified) | inactive: -36.2% | –
Cc1ccc(-n2c(Cc3ccccc3)nnc2SCc2nc(-c3cccs3)no2)cc1C | inactive: -43.9% | –
COc1ccc(CNC(=O)c2ccc3nc(-c4ccc(F)cc4)c(-c4ccc(F)cc4)nc3c2)cc1 | inactive: -20.4% | –
CCC1(C)Cc2c(sc3nc(SC)n(-c4ccc(C)cc4)c(=O)c23)CO1 (stereo unspecified) | inactive: 3.47% | –
O=C(Nc1ccc(-c2nc3cc(Cl)ccc3o2)cc1)c1cc2ccccc2o1 | inactive: 18.5% | –
Cc1cc(NC(=O)CCNS(=O)(=O)c2cccc3nsnc23)ccc1Br | inactive: -34.7% | –
Cc1ccc(NC(=O)c2ccccc2Br)c(C(=O)c2ccccc2)c1 | inactive: -21.4% | –
CC1CCN(c2nc3ccc(C(=O)NCc4ccccc4)cc3s2)CC1 | inactive: -76.2% | –
COc1ccc(Cn2c(SCc3ccc(C(=O)NC(C)c4ccccc4)cc3)nc3cccnc32)cc1 (stereo unspecified) | inactive: -17.7% | –
CCSc1nc(-c2ccccc2F)nc2c1Cc1c(CO)cnc(C)c1O2 | inactive: -9.44% | –
COc1ccc(CCNC(=O)C(C)n2c(=O)cc(-c3ccccc3)c3c(C)nn(C)c32)cc1OC (stereo unspecified) | inactive: -22.3% | –
CC1CCN(c2nc3ccc(C(=O)N4CCN(c5ccccc5)CC4)cc3s2)CC1 | inactive: -77.4% | –
CCOc1ccc(N(CC)C(=O)c2cc3c(s2)-c2ccccc2OC3)cc1 | inactive: -31.8% | –
COc1cccc(N2CCN(C(=O)c3nn(C)c4c3CSc3ccc(C)cc3-4)CC2)c1 | inactive: 0.395% | –
Cc1ccc(-c2nc3sccn3c2Nc2ccc(C)c(C)c2)cc1 | inactive: -10.2% | –

SMILES | activity change, positive = activation | Potency
O=c1c(O)c(-c2cc(O)c(O)c(O)c2)oc2cc(O)cc(O)c12 | inactive: -1.7% | –
CCC(C(=O)Nc1cc(F)ccc1F)n1nc(C)c2c(C)n(-c3ccc(C)cc3)nc2c1=O (stereo unspecified) | inactive: -33.2% | –
CCN(C(=O)c1cn(CC)c(=O)c2cc(OC)c(OC)cc12)c1ccccc1F | inactive: -18.2% | –
Cc1cccc(NC(=O)C(=O)NCCc2csc(-c3ccc(F)cc3)n2)c1C | inactive: -10.8% | –
Cc1cc(C)c2c(=O)cc(CSc3n[nH]c(C)n3)[nH]c2c1 | inactive: -7.56% | –
COc1ccc(CCC(=O)NC2CC(=O)N(c3ccc(OC)cc3)C2)cc1 (stereo unspecified) | inactive: -20.4% | –
Cc1cc(N2CCCCC2)nc2ccc(NC(=O)CCC(=O)N3CCN(c4ccccc4)CC3)cc12 | inactive: 30.5% | –
O=C(CSCc1ccc(F)cc1)N1CCc2c([nH]c3ccccc23)C1c1ccc(Cl)cc1 (stereo unspecified) | inactive: -25.6% | –
COc1cc(C(=O)Nc2ccccc2-c2nc(-c3ccc(C)cc3)no2)cc(OC)c1OC | inactive: -3.47% | –
COc1ccc(NC(=O)CN2C(=O)c3cccnc3Sc3ccccc32)cc1OC | inactive: 14.7% | –
CCOC(=O)c1ccc(NC(=O)C2=C(C)Nc3nc(CCCO)nn3C2c2ccc(OC)cc2)cc1 (stereo unspecified) | inactive: -15.9% | –
Cc1cccc(N2CCN(C(=O)c3ccc(Nc4nc5ccccc5n5nnnc45)cc3)CC2)c1C | inactive: 17.2% | –
CC1=C(C(=O)Nc2cc(Cl)ccc2C)C(c2cccs2)n2ncnc2N1 (stereo unspecified) | inactive: -2.49% | –
CCN1CCN(C(=O)N[C@H](C(=O)N[C@@H]2C(=O)N3C(C(=O)O)=C(CSc4nnnn4C)CS[C@@H]23)c2ccc(O)cc2)C(=O)C1=O | inactive: 2.36% [at 19.1 µM, percent change from vehicle, -100% = no light] | –
COc1ccc2c(CNCCc3cccs3)c(C(=O)O)n(Cc3ccc(F)cc3Cl)c2c1 | inactive: -56.4% | –
CCC(Sc1nnc2c3ccccc3n(CC)c2n1)C(=O)Nc1nnc(C(C)C)s1 (stereo unspecified) | inactive: -13.4% | –
COc1ccc(-c2cc3nc(C4CCN(C(=O)OC(C)(C)C)CC4)c(C(=O)Nc4cc(C)cc(C)c4)cn3n2)cc1 | inactive: 13% | –
Cn1c(=O)cc(SCC(=O)N2CCN(c3ccccc3F)CC2)c2ccccc21 | inactive: -19.4% | –
CCCN1CCN(CCCNC(=O)c2ccc3nc(Cc4ccccc4)oc3c2)CC1 | inactive: -7.19% | –
CCOc1ccc(CN(CCc2ccc3c(c2)OCO3)Cc2cc(OC)c(OC)cc2OC)cc1 | inactive: -22.7% | –
COc1ccc(C)cc1NC(=O)c1cc(S(=O)(=O)N2CCCCC2)c[nH]1 | inactive: -20.9% | –
Cc1cc(C)cc(NC(=O)CCCc2nc(-c3ccco3)no2)c1 | inactive: -21.8% | –
